Source: PubChem BioAssay AID504466 (National Center for Advancing Translational Sciences (NCATS), 2011)
Screen size: about 330,000 compounds; about 4,200 (1.3%) were called active. The inconclusive results got no clear call from the source; some entries with a clear call stand among them for comparison. The call rests on the fitted dose curve; in most records, active means well fitted activation curve with a large enough effect; inconclusive means small, poorly fitted or top-dose-only effect; inactive means no such curve, though single readings can be large or run the other way. Potencies of inconclusive entries are doubtful fits and often do not repeat.
Potency means the concentration at half of the fitted maximal effect; tags describe the fitted curve by direction and shape.

Experiment: qHTS screen for small molecules that induce genotoxicity in human embryonic kidney (HEK293T) cells expressing luciferase-tagged ELG1; further: nearly all actives have a fitted effect of over 60% in size
Settings: HEK293T ELG1-luciferase reporter, luminescence, 16 h; series mostly up to 46 µM
In short: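 Quantitative HTS format in 1536-well plates. HEK293T ELG1-luciferase reporter cells receive test compound and are incubated 16 hr at 37 °C, 5% CO2; ONE-Glo added, 30 min room temperature, then luminescence read.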
For `Cn1c(NC(=O)/C=C/c2ccc(Cl)c(Cl)c2)cc(=O)n(C)c1=O`, the Potency was inconclusive: 23.1 µM [activator, partial curve, poor fit]. In the case of `N#Cc1ccsc1NC(=O)CCc1ccccc1`, the Potency is reported as inconclusive: 10.3 µM [activator, partial curve]. In the case of `O=C(O)c1ccc2nc(-c3ccccc3)c(-c3ccccc3)nc2c1`, the Potency is reported as inconclusive: 29.1 µM [activator, single point]. With `CCc1c(C)nc(SCC(=O)N2CCCCC2CC)[nH]c1=O` (centres undefined) the Potency was inconclusive: 18.3 µM [activator, partial curve, poor fit]. With `COc1cccc2cc(-c3nc(-c4cccs4)cs3)c(=O)oc12` the Potency was inconclusive: 8.2 µM [activator, partial curve, poor fit]. In the case of `Cc1ccc(C(=O)NC2CCCC(C)C2C)cc1S(=O)(=O)N1CCCCC1` (centres undefined), the Potency is reported as active: 18.3 µM. For `C/C(=N\NS(=O)(=O)c1ccc(C)c([N+](=O)[O-])c1)c1cc2ccccc2o1`, the Potency was “inactive”. For `O=C(COC(=O)c1ccccc1Br)NC1CCCC1`, the Potency was inconclusive: 0.58 µM [activator, single point]. With `COC(=O)C1C(=O)C2=C(CC1C)NC(C)=C(C(=O)OCc1ccc(OC)cc1)C2c1ccc(C)o1` (centres undefined) the Potency was “inactive”. In the case of `CC1CCCC(NC(=O)c2cc(S(=O)(=O)N3CCCCC3)ccc2Cl)C1C` (centres undefined), the Potency is reported as “inactive”. For `O=c1cc(-c2ccccc2Cl)oc2c(Br)ccc(O)c12`, the Potency was inconclusive: 13 µM [activator, partial curve, poor fit]. In the case of `CN1CCN(c2nc(-c3ccc(C(C)(C)C)cc3)nc3ccccc23)CC1`, the Potency is reported as inconclusive: 3.66 µM [activator, single point]. For `CC(=O)CSc1nc2ccccc2o1`, the Potency was inconclusive: 25.9 µM [activator, partial curve, poor fit]. With `COc1cc(NS(=O)(=O)c2ccc(C)cc2)c2ncccc2c1` the Potency was inconclusive: 18.4 µM [activator, single point]. In the case of `Cc1ccc(S(=O)(=O)N(C)c2ccc(C(=O)NCCc3ccccc3)cc2)cc1`, the Potency is reported as “inactive”. For `Cc1nc(SCCc2ccccc2)[nH]c(=O)c1C`, the Potency was inconclusive: 20.6 µM [activator, partial curve, poor fit]. With `CCOC(=O)c1c(C)oc2c1c(CN1CCN(CCO)CC1)c(O)c1ccccc12` the Potency was inconclusive: 18.3 µM [activator, single point]. In the case of `CC(=O)Nc1ccc2c(c1)ncn2-c1ccc(C)cc1`, the Potency is reported as active: 9.2 µM. With `COc1ccc(Cl)cc1NC(=O)CN(C)C(=O)c1ccc(N2CCCCCC2)c([N+](=O)[O-])c1` the Potency was “inactive”. For `CCOC(=O)c1cn2nc(N3CCCCC3)ccc2n1`, the Potency was active: 0.58 µM. For `CCN(c1ccccc1)S(=O)(=O)c1ccc(OC)c(NC(=O)c2ccc(=O)[nH]c2)c1`, the Potency was “inactive”. For `Cc1nc2cc(NC(=O)Nc3ccc(Br)cc3)ccc2o1`, the Potency was inconclusive: 2.59 µM [activator, full curve]. For `O=C(Nc1nnc(-c2ccccc2F)s1)c1cccnc1`, the Potency was inconclusive: 18.3 µM [activator, partial curve]. For `COc1ccc(CNc2ccc3c(c2)nc(C)n3C)cc1OC`, the Potency was inconclusive: 20.6 µM [activator, partial curve, poor fit]. In the case of `Cc1ccc(C(=O)NC(=S)Nc2ccc3c(c2)OCCO3)c(C)c1`, the Potency is reported as inconclusive: 16.4 µM [activator, partial curve, poor fit]. With `CCOC(=O)N1CC=C2C(C#N)=C(N)C(C#N)(C#N)[C@H](c3ccccc3OCC)[C@H]2C1` the Potency was inconclusive: 32.6 µM [activator, partial curve, poor fit]. For `COc1ccccc1C(=O)Nc1ccc2c(c1)OCCO2`, the Potency was inconclusive: 8.2 µM [activator, partial curve]. For `O=C(Nc1ccc(F)c(Cl)c1)c1cc(-c2ccco2)on1`, the Potency was “inactive”. For `O=C(Nc1ccc(N2CCN(C(=O)c3ccco3)CC2)cc1)c1cc(Br)ccc1Cl`, the Potency was “inactive”. With `COc1ccc(S(=O)(=O)O/N=C2\CCSc3ccc(C)cc32)cc1` the Potency was inconclusive: 23.1 µM [activator, single point]. In the case of `Cc1noc(C)c1S(=O)(=O)N(C)C[C@H]1Oc2ccc(NS(=O)(=O)c3ccc(F)cc3)cc2C(=O)N([C@H](C)CO)C[C@@H]1C`, the Potency is reported as “inactive”. In the case of `O=C(NC1CCCCC1)c1ccc(-c2cccc([N+](=O)[O-])c2)o1`, the Potency is reported as active: 2.06 µM. For `CCOc1cccc2cc(C(=O)NCc3ccc(F)cc3)c(=N)oc12`, the Potency was inconclusive: 16.4 µM [activator, partial curve, poor fit]. With `O=C(COc1ccc2ccccc2c1)NNC(=O)Cc1cccc2ccccc12` the Potency was “inactive”. For `COc1ccc(C(=O)NCCNc2ccccc2[N+](=O)[O-])cc1`, the Potency was active: 11.6 µM. In the case of `CC(C)C(=O)Nc1ccc(NC(=O)c2ccc(COc3ccccc3)cc2)cc1`, the Potency is reported as inconclusive: 3.66 µM [activator, full curve, poor fit]. For `O=C(Nc1ccc(F)c(F)c1)c1ccccc1`, the Potency was active: 20.6 µM. With `Cc1sc(NC(=O)c2ccc(Cl)s2)c(C(N)=O)c1C` the Potency was active: 1.64 µM. For `CCOc1ccc(Nc2nc(N3CCOCC3)nc(N3CCOCC3)n2)cc1`, the Potency was “inactive”. With `COc1ccc(/C=C/C(=O)NC2CC3CCC2C3)cc1` (centres undefined) the Potency was inconclusive: 25.9 µM [activator, partial curve, poor fit]. For `COc1ccc(C2Nc3ccccc3C(=O)N2c2ccc(Cl)cc2)cc1Cn1cc([N+](=O)[O-])cn1` (centres undefined), the Potency was inconclusive: 8.2 µM [activator, partial curve, poor fit]. In the case of `CCc1nc(Nc2ccc3c(c2)OCCO3)c2oc3ccccc3c2n1`, the Potency is reported as “inactive”. In the case of `CCCCN1CC(O)=C(c2nc3ccccc3s2)C1=N`, the Potency is reported as “inactive”. For `O=C(O)c1ccc(-c2nc(-c3ccccc3Cl)cs2)cc1`, the Potency was inconclusive: 14.6 µM [activator, partial curve, poor fit]. For `CCC1CCCCN1Cc1nc2c(c(=O)n(C)c(=O)n2C)n1CC(C)C` (centres undefined), the Potency was inconclusive: 23.1 µM [activator, single point]. In the case of `CC(=O)NCCC(=O)Nc1nc(-c2c[nH]c3ccccc23)cs1`, the Potency is reported as “inactive”. With `N#Cc1ccc(NC(=O)c2cc(=O)c3ccccc3o2)cc1` the Potency was inconclusive: 35.5 µM [activator, single point]. In the case of `CCCCCCNC(=O)c1cc(S(=O)(=O)N2CCc3ccccc32)ccc1F`, the Potency is reported as “inactive”. In the case of `CCNC(=O)COc1ccc(OCc2ccccc2)cc1`, the Potency is reported as “inactive”. In the case of `CS(=O)(=O)c1ccc2nc(NC(=O)c3ccccc3Br)sc2c1`, the Potency is reported as inconclusive: 23.1 µM [activator, single point]. With `COc1cc(C=O)c(Br)cc1OCc1ccc(C)cc1` the Potency was inconclusive: 18.4 µM [activator, partial curve, poor fit]. In the case of `O=C(COc1ccccc1Cl)Nc1cccnc1`, the Potency is reported as inconclusive: 10.3 µM [activator, partial curve]. With `CCCCNS(=O)(=O)c1ccc(NC(=O)C2CCCO2)cc1` (centres undefined) the Potency was “inactive”. In the case of `COC(=O)c1ccc(NC(=O)CSc2nc3ccccc3c(=O)[nH]2)cc1`, the Potency is reported as inconclusive: 10.3 µM [activator, partial curve, poor fit]. With `Cc1cccc(N2CCN(C(=S)Nc3ccc4nc(N5CCOCC5)cc(C)c4c3)CC2C)c1` (centres undefined) the Potency was inconclusive: 3.26 µM [activator, single point]. With `COc1ccc(C2=Nc3cc(C)ccc3OC2)cc1` the Potency was inconclusive: 0.651 µM [activator, full curve]. In the case of `Cc1cccn2c1nc(=S)n2C(=O)c1ccco1`, the Potency is reported as inconclusive: 8.2 µM [activator, partial curve]. For `COc1ccc(N2C(=O)c3ccccc3NC2(C)C)cc1`, the Potency was “inactive”. For `COc1ccc(-c2csc(-c3cccs3)n2)c(OC)c1`, the Potency was active: 2.06 µM. For `CCn1cc(CN2CCCC(C(=O)c3ccc(-c4ccccc4)cc3)C2)cn1` (centres undefined), the Potency was “inactive”. For `COc1ccccc1-c1cc(C(=O)NC2CCCC2)no1`, the Potency was inconclusive: 5.8 µM [activator, full curve]. With `Cc1ccc(OCC(=O)Nc2ccc3c(c2)OCCO3)cc1C` the Potency was inconclusive: 13 µM [activator, partial curve]. With `CCc1c(C)nc2cc(-c3ccccc3)[nH]n2c1=O` the Potency was inconclusive: 11.2 µM [activator, single point]. For `CCO/N=C(\C)c1c(O)c2ccccc2n(C)c1=O`, the Potency was “inactive”. In the case of `Cc1occc1C(=O)NNC(=S)Nc1ccccc1`, the Potency is reported as inconclusive: 8.2 µM [activator, partial curve]. In the case of `CSc1ccc(C(=S)N2CCCC2)cc1`, the Potency is reported as inconclusive: 18.3 µM [activator, partial curve, poor fit]. With `COc1ccc(NC(=O)c2coc3ccccc23)cc1OC` the Potency was inconclusive: 20.6 µM [activator, partial curve, poor fit]. With `c1ccc(Nc2nc(-c3ccccc3)ns2)cc1` the Potency was active: 1.83 µM. For `CC(=O)c1ccccc1C(=O)N1CCCC(C(=O)c2ccc(C(F)(F)F)cc2)C1` (centres undefined), the Potency was inconclusive: 16.4 µM [activator, partial curve, poor fit]. With `C/C(N)=C(/C#N)C(=O)CSc1nnc(-c2ccc(OC(F)F)cc2)o1` the Potency was active: 5.8 µM. For `COc1ccc(-n2c(=S)[nH]c3sc4c(c3c2=O)CCN(C)C4)cc1`, the Potency was “inactive”. In the case of `COc1ccc(C2(c3ccc(OC)cc3)NC(=O)N(CC(=O)NC(C)C)C2=O)cc1`, the Potency is reported as “inactive”. With `CCCC(=O)Nc1ccc2c(c1)Cc1ccccc1-2` the Potency was inconclusive: 16.4 µM [activator, partial curve]. For `COc1ccc(/C=C2\SC(=N)N(c3nccs3)C2=O)cc1OC`, the Potency was inconclusive: 29.1 µM [activator, single point].
